# Screen size: about 310,000 compounds; about 2,200 (0.71%) showed an effect of 50% or more. The effect is printed as a negative number. The list shows a part of the results.
# Target: human ether-à-go-go-related gene (hERG) potassium channel (human, UniProt Q12809)
# Experiment: primary screen, population patch clamp on CHO cells stably expressing hERG
# Sequence of human ether-à-go-go-related gene (hERG) potassium channel (Q12809 whole entry, looked up): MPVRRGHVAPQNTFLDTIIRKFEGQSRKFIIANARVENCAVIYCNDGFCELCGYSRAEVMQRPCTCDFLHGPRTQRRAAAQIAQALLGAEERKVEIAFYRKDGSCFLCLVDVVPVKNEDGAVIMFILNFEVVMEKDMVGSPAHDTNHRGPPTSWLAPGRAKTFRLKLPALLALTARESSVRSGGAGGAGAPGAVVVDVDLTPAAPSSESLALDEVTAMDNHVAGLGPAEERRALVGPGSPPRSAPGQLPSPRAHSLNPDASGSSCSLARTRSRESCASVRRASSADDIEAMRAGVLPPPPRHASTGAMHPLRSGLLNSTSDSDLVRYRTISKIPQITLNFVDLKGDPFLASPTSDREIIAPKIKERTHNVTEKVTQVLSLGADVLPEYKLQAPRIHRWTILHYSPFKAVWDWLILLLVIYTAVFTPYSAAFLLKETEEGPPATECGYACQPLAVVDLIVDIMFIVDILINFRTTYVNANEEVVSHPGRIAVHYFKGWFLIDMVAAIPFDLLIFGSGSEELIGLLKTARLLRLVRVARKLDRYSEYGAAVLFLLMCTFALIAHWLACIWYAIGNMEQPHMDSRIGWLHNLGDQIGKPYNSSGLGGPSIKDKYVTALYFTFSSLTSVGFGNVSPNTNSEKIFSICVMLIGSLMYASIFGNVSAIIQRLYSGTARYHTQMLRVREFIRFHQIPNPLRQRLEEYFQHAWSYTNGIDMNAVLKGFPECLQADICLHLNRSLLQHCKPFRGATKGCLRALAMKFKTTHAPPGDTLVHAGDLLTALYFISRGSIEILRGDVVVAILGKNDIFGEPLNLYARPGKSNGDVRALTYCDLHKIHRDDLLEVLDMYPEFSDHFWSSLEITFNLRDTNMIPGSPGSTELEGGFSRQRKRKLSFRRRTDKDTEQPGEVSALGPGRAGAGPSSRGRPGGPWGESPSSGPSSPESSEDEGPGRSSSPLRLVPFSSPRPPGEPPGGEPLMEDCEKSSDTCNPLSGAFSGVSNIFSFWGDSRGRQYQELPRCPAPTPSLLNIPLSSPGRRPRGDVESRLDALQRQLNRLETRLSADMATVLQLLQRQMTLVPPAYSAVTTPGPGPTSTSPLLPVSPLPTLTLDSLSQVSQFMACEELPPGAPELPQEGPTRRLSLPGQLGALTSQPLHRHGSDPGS
row,Compound,"hERG current change (%, negative = inhibition) at 1uM [%]"
1,CCn1c(=O)cc(OCC(=O)Nc2cccnc2)c2ccccc21,7.88
2,COc1ccc(N2CCN(C(=O)c3ccc(C)cc3Cl)CC2)cc1,-2.45
3,CCC(C)(C)NC(=O)C(c1ccc(C)cc1)N(CC1CCCO1)C(=O)CCC(=O)Nc1ccccn1 (stereo not shown),17.8
4,O=S(=O)(NC1CCCCC1Sc1ncccn1)c1ccc(Cl)cc1 (stereo not shown),4.13
5,CCCOc1ccc(S(=O)(=O)n2cc(Br)c(=O)[nH]c2=O)cc1,-5.19
6,Cc1ccc(C(=O)NCc2ccccn2)cc1S(=O)(=O)N1CCCCC1,18.4
7,O=C(Nc1ccc(/C=C/c2nc3ccccc3o2)cc1)c1ccc(F)cc1,9.29
8,COC(=O)c1c(NC(=O)COC(=O)[C@@H](NS(=O)(=O)c2ccc(C)cc2)C(C)C)sc2c1CCC2,15.1
9,CSc1cccc(NC(=O)/C=C/c2ccco2)c1,11
10,COc1cc(OC)cc(C(=O)Nc2ccc(C(=O)c3ccncc3)cc2)c1,11.8
11,COc1ccc(/C=N/n2c(SC)nnc(C(C)(C)C)c2=O)cc1OC,9.96
12,CCCCC(=O)Nc1cccc(NC(=O)c2ccc(Br)cc2)c1,19.4
13,O=C(C1CCN(S(=O)(=O)c2cccs2)CC1)N(c1ccccn1)C1CCCCC1,11.2
14,CCC(=O)N(Cc1ccco1)Cc1cc2cc3c(cc2[nH]c1=O)OCO3,15.1
15,CCN1C(=O)CSc2ccc(C(=O)NCc3ccco3)cc21,10.4
16,CCn1c(SCC(=O)OC)nnc1C1CCCCC1,-2.08
17,COc1ccc(OCC#CCN2CCNCC2)cc1.O=C(O)C(=O)O,17.8
18,CC(=O)N[C@@H](CC(=O)O)C(=O)O,8.96
19,COc1ccc(C(=O)C2CCCN(C(=O)c3cccs3)C2)cc1F (stereo not shown),5.97
20,O=C(NCCC1CCCCN1S(=O)(=O)c1ccccc1)C(=O)NCc1ccc(F)cc1 (stereo not shown),-16.4
21,O=C(NCCC1CCCCN1S(=O)(=O)c1cccs1)C(=O)Nc1ccccc1 (stereo not shown),12.7
22,COC(=O)c1ccc(COC(=O)C(CCS(C)(=O)=O)N2C(=O)c3ccccc3C2=O)cc1 (stereo not shown),-2.75

row,Compound,"hERG current change (%, negative = inhibition) at 1uM [%]"
1,Cc1nc2ccccc2c2c1C(=O)NC2=O,10.4
2,O=C(COc1ccc(Br)cc1)N/N=C1/SCC(=O)N1Cc1ccco1,-22.5
3,Cc1ccc(NC(=O)C(=O)NCCN2CCN(S(=O)(=O)c3ccccc3)CC2)cc1C,13.8
4,COc1ccccc1Nc1nc2cc(C)ccc2cc1C#N,12
5,NC(=O)CCN1CCN(S(=O)(=O)/C=C/c2ccccc2)CC1,12.7
6,O=C(COC(=O)c1cnc(Cl)c(Cl)c1)NCc1ccco1,2.55
7,Cc1cc(C)c(S(=O)(=O)NCCCn2ccnc2)cc1C,9.48
8,Cc1cc(OC(C)C(=O)NCc2cccnc2)c2c(C)cc(=O)oc2c1 (stereo not shown),9.3
9,O=S(=O)(Cc1ccccc1)c1nc2ccccc2n1Cc1ccccn1,6.47
10,C=C(NC(C)=O)c1c(F)cccc1F,20.4
11,NC(=S)Nc1ccc(Oc2ccc(NC(N)=S)cc2)cc1,12.4
12,CCN(Cc1ccccc1)S(=O)(=O)c1ccc(C(=O)N2CCN(c3nc4ccccc4s3)CC2)cc1,8.29
13,Cc1nc2cccc(C(=O)Oc3ccc([N+](=O)[O-])cc3)c2o1,4.59
14,COc1ccc(/C(C)=N\Nc2nc(-c3ccc(Cl)cc3)cc(C(F)(F)F)n2)cc1OC,7.07
15,CCOC(=O)C1=C(CNCc2ccccc2Cl)NC(=O)NC1c1cccc([N+](=O)[O-])c1 (stereo not shown),-4.17
16,O=C(Nc1ccc(N2CCOCC2)nc1)c1ccc(Cl)cc1,-2.62
17,CCN1CCN(c2oc(-c3ccc(OC)cc3)nc2C#N)CC1,-25.6
18,Cc1cc(Cl)c2ccc(Cl)cc2n1,10.1
19,COc1ccc2c(c1OC)C(=O)N(c1ccc(O)cc1)C2,11.2
20,NC(=O)CC(NC(=O)c1ccc(Br)cc1)c1ccc(NCCc2ccc(F)cc2)c([N+](=O)[O-])c1 (stereo not shown),11
21,CCOc1ccc(NC(=O)c2ccccc2-c2ccccc2C(=O)O)cc1,12.9
22,O=C1CC(c2cccc([N+](=O)[O-])c2)c2ccc3ccccc3c2N1 (stereo not shown),1.72

row,Compound,"hERG current change (%, negative = inhibition) at 1uM [%]"
1,Cc1ccn(CCC(=O)N2c3ccccc3CC2C)n1 (stereo not shown),16
2,Cc1ccc(-n2c(=O)[nH]cc(C(=O)N3CCc4ccccc43)c2=O)cc1,7.77
3,COc1ccc(CNC(=O)c2cc(-c3ccccc3O)n[nH]2)cc1,8.65
4,COc1ccc(-n2c(SCC(=O)OC(C)C)nnc2-c2ccccn2)cc1,-16
5,COc1cc(NC(=O)c2cc(S(=O)(=O)N3CCc4ccccc43)cn2C)cc(OC)c1OC,13.6
6,O=[N+]([O-])C1=CC=C2C(=NC3(CCCCC3)N2O)C1=NC1CCCCC1,25
7,CCCS(=O)(=O)N1CCN(C(=O)c2cc(OC)cc(OC)c2)CC1,10.7
8,COc1ccc(C(=O)N/C(=C/c2cccnc2)C(=O)N2CCCCCC2)cc1OC,10.4
9,COc1cc(NC(=O)CSc2nnnn2Cc2ccccc2)cc(OC)c1,7.74
10,CC(C)OP(=O)(c1ccc(N(C)C)cc1)C(O)c1ccc(N(C)C)cc1 (stereo not shown),11.4
11,O=C(c1ccco1)N1CCN=C1SCc1cccc(F)c1,1.43
12,CC(=O)NNC(=O)c1sc(=S)n(C)c1C,8.85
13,CC(=O)N1c2ccc(N=Cc3cc(Br)cc(Br)c3O)cc2CC1C (stereo not shown),10.5
14,CCSc1nc(-c2ccccc2)c(-c2ccccc2)n1CC(O)CO (stereo not shown),4.81
15,Cc1nc(-c2cccc(NC(=O)C3CCCCC3)c2)cs1,8.18
16,Cn1c(/C(C#N)=C/c2ccc(-c3ccc(S(N)(=O)=O)cc3)o2)nc2ccccc21,-7.29
17,O=C(NCc1ccccn1)c1ccc(CNS(=O)(=O)c2ccc(F)cc2)cc1,17.5
18,COc1ccc(C(OC(=O)c2cccs2)C(=O)NCC2CCCO2)cc1 (stereo not shown),-0.195
19,COc1cc(C(=O)NNC(=O)c2ccccc2OCc2c(C)noc2C)cc(OC)c1OC,1.66
20,O=C(Cc1ccc(Cl)cc1Cl)Nc1cccc(S(=O)(=O)Nc2ccccc2F)c1,7.28
21,COC(=O)c1ccc(Cn2nc(C)c(Br)c2C)cc1,10.5
22,C=CCC1(C)C(=O)N(c2ccccc2)c2ccccc21 (stereo not shown),18.2

row,Compound,"hERG current change (%, negative = inhibition) at 1uM [%]"
1,CCN(CC(=O)Nc1cccc(C#N)c1)CC(=O)Nc1cccc(OC)c1,-2.99
2,CCOC(=O)/C=c1\s/c(=C\c2sccc2C)c(=O)n1CC(=O)NCc1ccc(C)cc1,16.3
3,Cc1ccc(N2CC(C(=O)Nc3ccc(N(C)C)cc3)CC2=O)cc1C (stereo not shown),8.76
4,Cc1ccc(NC(=O)Cc2ccccc2F)cc1S(=O)(=O)N1CCCCCC1,2.69
5,COc1ccc(OC)c(/C=C/C(=O)Nc2cccc(S(=O)(=O)NC3=NCCCCC3)c2)c1,5.24
6,CCC(=O)N/N=C/c1ccc(-c2ccc([N+](=O)[O-])cc2)o1,15.9
7,COc1ccc2oc(C)c(C(=O)c3ccccc3)c2c1,11
8,CCOC(=O)/C=C1\NC(C)(C)Cc2cc(OC)c(OC)cc21,8.67
9,COCCn1c(SC(C)C(=O)Nc2ccc(Cl)cn2)nnc1-c1ccncc1 (stereo not shown),-2.1
10,COC(=O)C1=C(c2ccc(OC(F)(F)F)cc2)C[C@@H]2CC[C@H]1N2C(=O)NCCOc1ccccc1,6.83
11,CCOC(=O)c1ccc(N=C2C(=S)N(c3ccc(C(=O)OCC)cc3)C(=N)N2/N=C/c2ccccc2)cc1,-12.6
12,C/C(CC(=O)Nc1ccc(Cl)c(Cl)c1)=N\NC(=O)C(=O)N1CCCCC1,19.2
13,Cc1cccc(NC(=O)Nc2c(C)[nH]c(=O)[nH]c2=O)c1C,15
14,CC(NC(=O)CC1Sc2ccccc2NC1=O)c1ccccc1 (stereo not shown),15
15,COc1ccc(C(=O)NC(=S)N2CCC(C)CC2)cc1Br,2.86
16,Cc1ccccc1S(=O)(=O)Cc1ccc(C(=O)NCc2ccco2)o1,1.46
17,O=C1C2CCCN2C(=S)N1Cc1ccccc1 (stereo not shown),8.12
18,Cn1ncc2c(Nc3ccccc3Br)ncnc21,17.1
19,COc1ccc(-c2cc(C3CC3)nc(SCC(=O)c3cccs3)c2C#N)cc1,9.55
20,COC(=O)c1ccccc1NC(=O)CSc1nnc(C(CO)NC(=O)c2ccccc2)n1C (stereo not shown),6.73
21,COC(=O)c1sc(NC(=O)/C=C/c2ccc(C)cc2)nc1C,13.4
22,CCCCCCCC(=O)N1CCN(c2cc3c(cc2F)c(=O)c(C(=O)O)cn3CC)CC1,5.98
